Test results published in patent publication US20200179510A1, “LOW DENSITY LIPOPROTEIN RECEPTOR RELATED PROTEIN 5 INHIBITION SUPPRESSES TUMOR FORMATION” (YALE UNIVERSITY, priority 2017, published 2020).

Tests used:
[1] = tested on: phospho-STAT5 nuclear localization; assay: Immunocytostaining of phospho-STAT5 localization in NK cells; type: cell-based, mouse; details: NK cells from MC38 tumors treated 6 days (two 10 mg/kg injections), vs IgG
Experimental: They were then placed on poly-lysine coated coverslips and incubated for 30 min at room temperature. Cells were fixed with 4% PFA for 10 min at room temperature and permeabilized with ice-cold methanol for 10 min at −20° C. After rinsed with PBS for 3 times, cells were blocked with a blocking buffer (5% normal donkey serum and 0.5% triton in PBS) for 1 hr at room temperature. Primary antibodies were then diluted in PBS with 0.5% BSA and applied to cells with overnight incubation at 4° C. Cells were rinsed with PBS for 3 times and incubated with diluted fluorochrome-conjugated secondary antibodies (in PBS with 1% BSA) for 1 hr at room temperature. Finally, cells were rinsed with PBS for 3 times and mounted with Prolong Gold Antifade solution (Thermo Fisher) for confocal microscopy.

YUMM1.7 tumors = assay: YUMM1.7 melanoma tumor graft in C57BL/6 mice; type: in vivo, mouse; details: 10 mg/kg i.p. every 5 days starting Day 12
Experimental: Tumor growth was measured by calipers, and size was expressed as one half of the product of perpendicular length by square width in cubic millimeters. For antibody treatment, control IgG3 antibody and anti-DKK2 antibody were diluted in PBS, and 100 μl was injected i.p. at intervals indicated in the Figures. For survival tests, mice are euthanized when the tumor size exceeding 1800 mm3 for MC38 and 1200 mm3 for YUMM1.7.

B1: 5F8: Mouse monoclonal antibody to DKK2, raised against a synthetic peptide of human DKK2 (SEQ ID NO: 21); chains SEQ ID NOs: 22, 23 (antibody, V domains shown)
VH: GAELVRPGASVKLSCKASGYSFTNYWMNWVKQRPGQGLEWIGMIHPSDSETRLNQKFKDKATLTVDKSSSTAYMQLSSPTSEDSAVYYCAREGRLGLRSYAMDYWGQGTSVTVSS
VL: PSSLAMSVGQKVTMSCKSSQSLLNSSNQKNYLAWYQQKPGQSPKLLVYFASTRESGVPDRFVGSGSGTDFTLTITSVQAEDLADYFCQQHYITPLTFGAGTKLE
- cytosolic localization of phospho-STAT5 in tumor-infiltrated NK cells [1]: reduced cytosolic localization of phospho-STAT5
- performance compared with PD-1 blockade, YUMM1.7 model (YUMM1.7 tumors): a general trend of better performance than PD-1 blockade
- survival of tumor-bearing mice, YUMM1.7 model (YUMM1.7 tumors): extended the survival of tumor-bearing mice
- tumor progression, YUMM1.7 model (YUMM1.7 tumors): significantly impeded tumor progression
